Measurements reported in the RNAGym collection of RNA variant scans (doi:10.7554/elife.90254).
Read counts are not given, so values of variants with three or more changes are uncertain.

B1: LINE1-mini (parent)
chain: GGCAGAGCUCAACACAGCGUGGCAAAGUGGCUGUGGCUAGACUGCC

Variants of: B1
Assay: self-cleavage, relative activity (ratio to wild type); higher = more cleavage; in vitro, sequencing; the parent is a self-cleaving ribozyme

**Q.** With GGCAUAGGUCAUCUCAGCGUGACAAAGUGGCUGUGGCUAGACUGCC [G5U C8G A12U A14U G22A] as the variant, how does the self-cleavage read?
**A.** Its self-cleavage is 0.01.

**Q.** For GUCAGAGCUCAACAUAGCGUGGCAAAGUGGCUGUGGCUAAACCGCC [G2U C15U G40A U43C], which self-cleavage is on record?
**A.** The self-cleavage was 0.01.

**Q.** With UGGAGAGCUCAACACGGCGUGGCAAACAGGCUGUGCCUAGACUGCC [G1U C3G A16G G27C U28A G36C] as the variant, how does the self-cleavage read?
**A.** Its self-cleavage is 0.03.

**Q.** Which self-cleavage does the source give for GGAAGAACUCAACACAGCGGGGCAAAGUGGCUGUGGCUAGACUGCC [C3A G7A U20G] here?
**A.** The self-cleavage was 0.23.

**Q.** With GGCAGAGCACAACACAGCGUGGCAAAGUGGCUGUGGCUUGACCGCC [U9A A39U U43C] as the variant, how does the self-cleavage read?
**A.** The self-cleavage was 0.08.

**Q.** Which self-cleavage does the source give for GGCAGCCCUCAACACAGCGUGCCAAAGUGGCUGUGCAUAGACUGCC [A6C G7C G22C G36C C37A] here?
**A.** Its self-cleavage is 0.18.

**Q.** Which self-cleavage does the source give for GGCCGAGCUCAGAACAGCGUGGCGAAGUGGCUGUGGCUAGACAGCC [A4C A12G C13A A24G U43A] here?
**A.** Its self-cleavage is 0.2.

**Q.** For GGCAGAACUCAACACAGCGUGGCAAAGUGGCUAUGCCUAGACUGCC [G7A G33A G36C], which self-cleavage is on record?
**A.** The self-cleavage was 0.13.

**Q.** Which self-cleavage does the source give for GGCAGAUGUCAACUCGGCGUGGCAAAGUGGCUCUGGCUAGUCUGCC [G7U C8G A14U A16G G33C A41U] here?
**A.** Its self-cleavage is 0.12.

**Q.** With GGCAGAGCUCAACAUAGCGUGGCCAAGUGGCUGUGGCUAGAUUGCC [C15U A24C C42U] as the variant, how does the self-cleavage read?
**A.** Its self-cleavage is 0.08.

**Q.** Which self-cleavage does the source give for GGAAGAGCUCAACACAGCGUGUCAAAGUGGCUCUAGCUAGACUGCC [C3A G22U G33C G35A] here?
**A.** Its self-cleavage is 0.03.

**Q.** For GGCAGAGAUCAACACAGCGUGGCAAAUUGGCUGUGGCUAGACAGCC [C8A G27U U43A], which self-cleavage is on record?
**A.** The self-cleavage was 0.07.

**Q.** With GGCAGAGCUCAACACAGCGUGGAAAAGUGGCUGUCGCGAGGCUGCC [C23A G35C U38G A41G] as the variant, how does the self-cleavage read?
**A.** Its self-cleavage is 0.02.

**Q.** Which self-cleavage does the source give for GGCAGAGCUCAACACAGCGUGGCAAAGUGGCCGGGACUAUACAGCC [U32C U34G G36A G40U U43A] here?
**A.** The self-cleavage was 0.01.

**Q.** Which self-cleavage does the source give for GGCAGAGCUCAACACAGCGAGGCAACGUGGCUGGGGCUAGACUGCC [U20A A26C U34G] here?
**A.** The self-cleavage was 0.33.

**Q.** Which self-cleavage does the source give for GCCAGAGCUCAACACAGCGCGGUAAAGUCGCUGUGGCUAGACUGCC [G2C U20C C23U G29C] here?
**A.** The self-cleavage was 0.04.

**Q.** With GGCAGAGCACAACACAGCGUGGCAAAGUGACUGUGGCUCGACUGCA [U9A G30A A39C C46A] as the variant, how does the self-cleavage read?
**A.** The self-cleavage was 0.04.

**Q.** With GUCAGAGCUCUACAUUGCGUGUGAAAGUGGCUGUGGCUAGACUGCC [G2U A11U C15U A16U G22U C23G] as the variant, how does the self-cleavage read?
**A.** The self-cleavage was 0.01.

**Q.** Which self-cleavage does the source give for AGCAAAGCGCAACACAGCGUGGCAGAGUGGCUGUGCUUAGUCUGCC [G1A G5A U9G A25G G36C C37U A41U] here?
**A.** Its self-cleavage is 0.14.

**Q.** With GGCACAGGUGAACACAGCGUGGCAAAUUGGCUGUGGCUAGACUGCC [G5C C8G C10G G27U] as the variant, how does the self-cleavage read?
**A.** Its self-cleavage is 0.03.

**Q.** Which self-cleavage does the source give for GGUUGAGCUCAACACAGCGUGGCAAAGAGACUGUGGUUAGACUGCC [C3U A4U U28A G30A C37U] here?
**A.** Its self-cleavage is 0.37.

**Q.** Which self-cleavage does the source give for GGCAGAGCUAAACACAGUGUGGCACAGUGGCUGUGGCUAGACUUCC [C10A C18U A25C G44U] here?
**A.** Its self-cleavage is 0.03.

**Q.** Which self-cleavage does the source give for GGCAGAGCUCCACGCAGCGUGACAAAGUGUCCGUGGCUAGACUGCC [A11C A14G G22A G30U U32C] here?
**A.** Its self-cleavage is 0.02.

**Q.** For CGCAGAGCUUAACACAGCGUGGCAAAGUGGCUGUGGCUACACUGCC [G1C C10U G40C], which self-cleavage is on record?
**A.** Its self-cleavage is 0.03.

**Q.** With GGCAGAGCUUAACCCAGCGUGGCAAAGUGGCUGUGACUAGACUGCC [C10U A14C G36A] as the variant, how does the self-cleavage read?
**A.** Its self-cleavage is 0.03.

**Q.** Which self-cleavage does the source give for GGCAGAGCUCAACACAGCGUAGCAAAGUGGCUGUCGCUAGAGUGCC [G21A G35C C42G] here?
**A.** Its self-cleavage is 0.04.

**Q.** For GGUAGAUCUCAACACAGCGUGGCAAAGUGGCUUUGGCUAAACCGCC [C3U G7U G33U G40A U43C], which self-cleavage is on record?
**A.** The self-cleavage was 0.03.

**Q.** With GGCAGAGCUCAACACAGCGUGGCUAAGUGGCUGUGGCUACACUGGA [A24U G40C C45G C46A] as the variant, how does the self-cleavage read?
**A.** Its self-cleavage is 0.06.

**Q.** Which self-cleavage does the source give for GGCAGACCUCAACACCGCGGGGCAAAGUGGCUGUGGCUAGACUGCC [G7C A16C U20G] here?
**A.** The self-cleavage was 0.09.

**Q.** For GUCAGCGGUCAACACAGCAUGGCAAAGUGGCUUAGGCUAGACUGCC [G2U A6C C8G G19A G33U U34A], which self-cleavage is on record?
**A.** The self-cleavage was 0.04.

**Q.** With GGGAGAGCUCAACAAAGGGUGGCAAAGUGGCUGUGGCUCGACUGCC [C3G C15A C18G A39C] as the variant, how does the self-cleavage read?
**A.** Its self-cleavage is 0.06.

**Q.** With GGCAUAACUCAACACAGCAUGGCAAAGUGGCUGUGGCUAAACUGCC [G5U G7A G19A G40A] as the variant, how does the self-cleavage read?
**A.** Its self-cleavage is 0.28.

**Q.** For GGCAGAUCGCAACACAGCGUGGCCAAGGGGCUGAGGCUCGACUGCA [G7U U9G A24C U28G U34A A39C C46A], which self-cleavage is on record?
**A.** The self-cleavage was 0.02.

**Q.** Which self-cleavage does the source give for GGCAGAGCUCAACACAGCUAGGAAAAGUGGCUGUGGAUAGACCGCC [G19U U20A C23A C37A U43C] here?
**A.** The self-cleavage was 0.02.

**Q.** With GGCAGAGCUCAACACAGCGUGACAAAGUGGCUGUGGCUAGUAUGCC [G22A A41U C42A] as the variant, how does the self-cleavage read?
**A.** The self-cleavage was 0.08.

**Q.** With GACGGAGCGCAACACAGCUUGGCAAAGUGGUUGUGGCUAGACUGCC [G2A A4G U9G G19U C31U] as the variant, how does the self-cleavage read?
**A.** Its self-cleavage is 0.04.

**Q.** Which self-cleavage does the source give for GGCAGAGGUUAACACAGAGUGGCAAAGUGGCUGUGGCUAGACUGCC [C8G C10U C18A] here?
**A.** The self-cleavage was 0.04.

**Q.** For GGCAGAGAUCAAUACAGCGUGGCAAAGUGGUUGGGGCUAGACUGCC [C8A C13U C31U U34G], which self-cleavage is on record?
**A.** The self-cleavage was 0.42.

**Q.** Which self-cleavage does the source give for GGUAGAGCUCAAAACAGCGCGGCAAAGUGGCUGUGGCUAUACUGCC [C3U C13A U20C G40U] here?
**A.** The self-cleavage was 0.05.

**Q.** Which self-cleavage does the source give for GGCAGGGCUCAACACAGGGUGGCGAUGUGGCUGUGGCUAGACUGCC [A6G C18G A24G A26U] here?
**A.** The self-cleavage was 0.02.

**Q.** Which self-cleavage does the source give for GGUAGAGCUCAACACAACGUGGUAAAGUGGCUCUGGCUAGACUGCC [C3U G17A C23U G33C] here?
**A.** The self-cleavage was 0.02.

**Q.** For GGCAGAGCUCAACACUGCGUGGCAAAGUGGGUGUGGUUAGACUGCC [A16U C31G C37U], which self-cleavage is on record?
**A.** The self-cleavage was 0.01.

**Q.** Which self-cleavage does the source give for GGCAGAGCUCAACACAGCGUGACAAUGUGGCUGUGGAUAGACUGCC [G22A A26U C37A] here?
**A.** The self-cleavage was 0.06.

**Q.** Which self-cleavage does the source give for GGGCGAGCUCAACACAGCGUGGCAAAUUGGCUGUGGCUAGGUUGCC [C3G A4C G27U A41G C42U] here?
**A.** Its self-cleavage is 0.02.

**Q.** With GGCAGAGCUCAACACAGCGUGGUAAAGUGGCUGUGCCUAGACUACC [C23U G36C G44A] as the variant, how does the self-cleavage read?
**A.** The self-cleavage was 0.05.

**Q.** With GGAAGAGCUCAACACAUCGUGGCAAAGUGGCUGUGGCUAGACAGCA [C3A G17U U43A C46A] as the variant, how does the self-cleavage read?
**A.** Its self-cleavage is 0.2.

**Q.** Which self-cleavage does the source give for GGCAGAGCUCAACACAACGUGGCAAAGUGGCUGUGGGUUGACUGCC [G17A C37G A39U] here?
**A.** The self-cleavage was 0.01.

**Q.** For GGCAGAGCUCAACAAAGCGUGGCUAAGUGGCUGUGACUAGACUGCC [C15A A24U G36A], which self-cleavage is on record?
**A.** Its self-cleavage is 0.05.

**Q.** Which self-cleavage does the source give for GGCAGAGCUCAACACUGAGUAGAAAAGUGGGUGUGGCUAGACUGCC [A16U C18A G21A C23A C31G] here?
**A.** The self-cleavage was 0.01.

**Q.** With GGCAGAGCUCAAGACGGCGUCGCAAAGUGGCGGUGGCUAUACUGCC [C13G A16G G21C U32G G40U] as the variant, how does the self-cleavage read?
**A.** Its self-cleavage is 0.

**Q.** Which self-cleavage does the source give for GGCAGAGCCCAACACGUCGUGGCAAAGUGGCUGUGGCUCGACUGCC [U9C A16G G17U A39C] here?
**A.** The self-cleavage was 0.02.

**Q.** Which self-cleavage does the source give for GGCAGAGCUCUAAACAGCGUGGCAAGGUGGCUGUGGCUAGACUGCC [A11U C13A A26G] here?
**A.** The self-cleavage was 0.03.

**Q.** With CGCAGAGCUCAACACACCGUGGCAAAGUGGCUGUAGAUAGACUGCA [G1C G17C G35A C37A C46A] as the variant, how does the self-cleavage read?
**A.** Its self-cleavage is 0.

**Q.** Which self-cleavage does the source give for GGCAGAGCUCAACACAUCGUGGCAAAGUGGCUGUGGUUAGACUGGU [G17U C37U C45G C46U] here?
**A.** Its self-cleavage is 0.02.

**Q.** For GGGAGAGCUCAACACAGGGUGGCAAUGUGGCUGUGGCUAGACUGCC [C3G C18G A26U], which self-cleavage is on record?
**A.** Its self-cleavage is 0.04.

**Q.** Which self-cleavage does the source give for GGUAGUGCUCAACCACGCGUGGCAUAGUGGCUGUGGCUAGACUGCC [C3U A6U A14C C15A A16C A25U] here?
**A.** Its self-cleavage is 0.04.
